# In all, about 52,000 compounds went through this assay and about 1,700 (3.3%) were called active. Rule as the data show it: active = survival mostly below about 52% (no sharp cut-off); inactive = mostly above about 56%. The list shows a part of the results.
# Test system: Wild type
# Experiment: growth inhibition of S. aureus wild type versus tarO mutant, primary screen, teichoic acid synthesis inhibitors, RN4220, OD600 (AID 463173)
# Details: S. aureus RN4220 wild type/DeltatarO growth, OD600, 18 h, stronger effect = lower value, screened at 18.75 µg/mL (by protocol)
row,Structure (SMILES),survival
1,COc1cc(NC(=O)C(CCSC)NS(=O)(=O)c2ccc3c(c2)oc(=O)n3C)cc(OC)c1 (configuration not stated),inactive: 65%
2,COC(=O)c1cn(C(=O)OC)c2ccccc12,inactive: 107%
3,Cc1ccc(-c2nnc3ccccc3c2C(=O)Nc2ccccc2F)cc1,inactive: 86%
4,Cc1ccc(NC(=O)Cn2c(=O)n(CCC(=O)NCc3ccccc3Cl)c(=O)c3ccccc32)cc1,inactive: 153%
5,CCOc1ccccc1C(=O)N(Cc1ccccc1F)C1CCS(=O)(=O)C1 (configuration not stated),inactive: 85%
6,COc1cc2[nH]c(=O)c(C(=O)NC3CCCC3)c(O)c2cc1OC,inactive: 93%
7,COc1ccc(Cl)cc1NC(=O)CSc1cn(CC(=O)N2CCCCCC2)c2ccccc12,inactive: 91%
8,O=C(CCC1CCCC1)N1CCCC(c2nc(-c3ccc(F)cc3)no2)C1 (configuration not stated),inactive: 111%
9,S=C1N(CN2CCOCC2)CCN1CN1CCOCC1,inactive: 108%
10,O=C(NCc1ccccn1)C1C2C=CC(C2)C1C(=O)Nc1ccc(F)cc1 (configuration not stated),inactive: 110%
11,COc1ccccc1NC(=O)CSc1nc(-c2ccccc2F)nc2cc(=O)[nH]n12,inactive: 73%
12,CC(=O)Nc1ccc(NC(=O)C(C)C)nc1,inactive: 109%
13,Cc1ccc(-n2c(=O)c3c(c4cc(C)ccc4n3C)n(CC(=O)NCc3ccccc3)c2=O)cc1,inactive: 91%
14,Cc1ccc2occ(CC(=O)N(Cc3ccc(C(C)C)cc3)C3CCS(=O)(=O)C3)c2c1 (configuration not stated),inactive: 65%
15,CC(C)(C)c1ccc(C(=O)N2CCC(c3nc4ccccc4o3)CC2)cc1,inactive: 102%
16,O=C(CNS(=O)(=O)c1ccc(Cl)cc1)NC1CCCC1,inactive: 103%
17,O=C(CCC1N=C2c3ccccc3N=C(SCc3ccccc3F)N2C1=O)NCc1ccc(F)cc1 (configuration not stated),inactive: 73%
18,COc1ccc(NC(=O)c2c(NCc3cccc(OC)c3)sc3c2CCCC3)cc1,inactive: 88%
19,CC1=C(c2ccc(Cl)cc2)S(=O)(=O)N=C1N1CCC(C(=O)NCc2ccccc2F)CC1,inactive: 81%
20,COc1ccc(-c2onc(C)c2C)cc1S(=O)(=O)NCC1CCN(Cc2cccc(F)c2)CC1,inactive: 76%
21,COc1ccc(CCNc2nc3c(-c4cccc(C)c4)nnn3c3ccccc23)cc1OC,inactive: 129%
22,Cc1cccc(N2CCN(C(=O)Cn3nc(Cc4cccnc4)c4ccccc4c3=O)CC2)c1C,inactive: 92%
23,FC(F)(F)c1cccc(N2CCN(CCN3CCOCC3)CC2)c1,inactive: 109%

row,Structure (SMILES),survival
1,Clc1cccc(-n2ncc3c(NCCCn4ccnc4)ncnc32)c1,inactive: 82%
2,COc1ccc(NC(=O)Cn2c(=O)ccc3cc(S(=O)(=O)N4CCCC4)ccc32)cc1Cl,inactive: 124%
3,COc1ccc(CNC(=O)Cn2c(=O)cc(-c3ccccc3)c3c(C)nn(C)c32)cc1,inactive: 73%
4,COc1ccc(S(=O)(=O)N(CC(=O)Nc2cccnc2)c2ccc(Cl)cc2)cc1,inactive: 63%
5,CCOc1ccccc1CNC(=O)c1cccn1-c1nnc(N2CCCC2)s1,inactive: 75%
6,Cc1ccccc1NC(=O)c1c(C)oc2ccc(O)c(CN3CCN(C)CC3)c12,inactive: 82%
7,O=C(O)C1CCCN1S(=O)(=O)c1ccc2ccccc2c1 (configuration not stated),inactive: 117%
8,CCc1ccc2oc(C(=O)Nc3ccccc3C(=O)OC)cc(=O)c2c1,inactive: 87%
9,CC(C)(C)c1ccc(-c2nc(SCC(=O)Nc3ccccc3F)n3[nH]c(=O)cc3n2)cc1,inactive: 87%
10,Cc1ccccc1CSc1cn(CC(=O)N2CCCCCC2)c2ccccc12,inactive: 81%
11,Cc1cccn2c(=O)c(C(=O)NCCc3ccc(S(N)(=O)=O)cc3)c(O)nc12,inactive: 61%
12,O=C(Nc1ccc(Cl)c(C(F)(F)F)c1)C1CCN(S(=O)(=O)c2cccc3nonc23)CC1,inactive: 90%
13,COc1ccc(CNC(=O)COCc2cc(-c3cccs3)on2)cc1,inactive: 94%
14,O=C(O)Cn1ccc2cc(S(=O)(=O)N3CCCCCC3)ccc21,inactive: 81%
15,O=C(CCOc1ccccc1)N(Cc1cccnc1)c1nc2c(F)cccc2s1,inactive: 82%
16,CCCCn1c(NCc2ccc(N(C)C)cc2)nc2ccccc21,inactive: 70%
17,Cc1ccccc1CSc1nc2ccsc2c(=O)n1CCC(C)C,inactive: 74%
18,COc1ccccc1NC(=O)c1oc2ccccc2c1NC(=O)C1CCCCC1,inactive: 36%
19,CC1C(=O)N2CCCc3cc(S(=O)(=O)N4CCC(C(N)=O)CC4)cc1c32 (configuration not stated),active: -3%
20,Cc1ccc2cc(CN(C(=O)c3cccc(Cl)c3)c3ccccc3)c(=O)[nH]c2c1,inactive: 84%
21,CCCSCCCNC(=O)c1ccc2c(c1)sc1nc(-c3ccc(OCC)cc3)cn12,inactive: 85%
22,COc1ccc(CCn2nnc(-c3ccc(NC(C)=O)c(Cl)c3)n2)cc1,inactive: 107%
23,COc1cccc(CNC(=O)c2cnc(N3CCCCC3)c3ccccc23)c1,inactive: 91%

row,Structure (SMILES),survival
1,COc1ccccc1Nc1nn2c(=O)c3ccc(C(=O)NCCC4=CCCCC4)cc3nc2s1,inactive: 77%
2,N#Cc1cc[n+](CC(=O)c2cccs2)cc1,inactive: 102%
3,O=C(NCc1ccccc1F)C1CCN(c2nn3cc(-c4ccc(F)cc4)nc3s2)CC1,inactive: 128%
4,CN1c2ccc(Cl)cc2-c2nc(SCC(=O)NCc3ccccc3)ncc2S1(=O)=O,inactive: 73%
5,CCNC(=S)N1CCN(Cc2ccccc2)CC1,inactive: 110%
6,Cc1ccc(OCc2ccc(-c3nc(C#N)c(NCc4ccccc4Cl)o3)o2)cc1,inactive: 125%
7,Cc1ccc(Cn2c(C(=O)O)c(CNC3CCCC3)c3ccc(C)cc32)cc1,inactive: 83%
8,COc1ccc(C)cc1NC(=O)C(Cc1ccccc1)NS(=O)(=O)c1cccs1 (configuration not stated),inactive: 72%
9,O=C(NC1CC(=O)N(c2cccc(F)c2)C1)c1cc2ccccc2o1 (configuration not stated),inactive: 73%
10,Cc1cc(C)cc(-n2c(SCC(N)=O)nc3c([nH]c4ccccc43)c2=O)c1,inactive: 75%
11,O=C(Nc1ccccc1C(F)(F)F)N1CCC(CN2CCc3ccccc3C2)CC1,inactive: 63%
12,Cc1cc(C)nc(Nc2ccc(O)cc2)n1,inactive: 95%
13,CCOC(=O)c1ccc(CN(Cc2ccccc2C)S(=O)(=O)c2ccc(F)c(C)c2)cc1,inactive: 66%
14,COCCNc1oc(/C=C/c2ccc(F)cc2)nc1C#N,inactive: 84%
15,Cc1ccc2nc(-c3cccc(NC(=O)c4cccc5ccccc45)c3)oc2c1,inactive: 65%
16,CCC(=O)N1CCc2cc(Br)cc(S(=O)(=O)CCC(=O)NCc3cccc(OC)c3)c21,inactive: 60%
17,CCCCOc1ccc(-c2nnn(C(C)(C)C(=O)O)n2)cc1,inactive: 117%
18,COc1ccc(Nc2ncnc3c2cnn3-c2ccc(C)cc2)cc1Cl,inactive: 133%
19,Cc1ccc(-n2c(=O)c3c(cnn3C)n(CC(=O)Nc3ccccc3C)c2=O)cc1,inactive: 73%
20,CCOc1ccc(-n2c(SCC(=O)NC3CCCCC3)nc3c([nH]c4ccccc43)c2=O)cc1,inactive: 83%
21,COc1ccc(NC(=S)N(Cc2ccco2)Cc2cc3cc(C)c(C)cc3[nH]c2=O)cc1,inactive: 103%
22,Cc1ccc(CNC(=O)CCCn2c(=O)[nH]c3ccc(Br)cc3c2=O)cc1,inactive: 103%
23,Cc1cccc(Cn2cc(S(=O)(=O)c3cccc(C)c3)c(=O)c3cc(F)c(N4CCOCC4)cc32)c1,inactive: 64%

row,Structure (SMILES),survival
1,COc1ccc2nc(C)cc(Nc3ccc(Cl)c(Cl)c3)c2c1,inactive: 75%
2,Cc1cc2nc3n(c2cc1C)CCCN3,inactive: 106%
3,Cc1ccn(C(=O)COc2ccc(Cl)cc2)n1,inactive: 107%
4,CCCCn1c(=NC(=O)c2cc3ccccc3o2)c(C(=O)OCC)cc2c(=O)n3ccccc3nc21,inactive: 120%
5,O=C(Cn1c(=O)oc2cc(S(=O)(=O)N3CCCCC3)ccc21)NCc1ccc(Cl)cc1,inactive: 82%
6,COc1ccc(N2CCN(Cc3nnnn3CCc3ccccc3)CC2)cc1,inactive: 105%
7,O=C(Oc1ccc(Cl)cc1)c1cc(-c2ccc3c(c2)OCCO3)on1,inactive: 108%
8,COc1ccc(Cn2ccnc2SCC(=O)NCc2ccco2)cc1,inactive: 70%
9,COc1ccc(-c2onc(C)c2C)cc1S(=O)(=O)NCC1CCN(Cc2cc(C)ccc2C)CC1,inactive: 73%
10,Cc1cccc(N2CCN(S(=O)(=O)c3ccc4c(c3)CC(=O)N4C)CC2)c1C,inactive: 152%
11,CCN(CC)CCNC(=O)Cn1nc(C)c2c(C)n(-c3ccccc3)nc2c1=O,inactive: 79%
12,COC(=O)c1ccccc1NC(=O)c1ccc2nc(CCc3ccccc3)oc2c1,inactive: 129%
13,CCn1c(=O)c2cc(C(=O)NCCCN3CCC(C)CC3)sc2c2ccccc21,inactive: 82%
14,CC(C)Oc1ccc(CCN=C(N)N=C(N)N)cc1Cl,inactive: 105%
15,COc1cccc(-c2noc(COc3ccccc3Cl)n2)c1,inactive: 82%
16,Cc1ccc(Cl)cc1NC(=O)CSc1nc2ccccc2nc1Cc1ccccc1,inactive: 69%
17,CCOc1ccc(N2C(=O)N(Cc3ccc(C)cc3C)c3ccccc3S2(=O)=O)cc1,inactive: 78%
18,COc1ccccc1N1CCN(CC(O)COc2cc(C)cc(C)c2)CC1 (configuration not stated),inactive: 82%
19,Cc1ccc(SCCNS(C)(=O)=O)cc1,inactive: 115%
20,O=c1c2ccccc2n(Cc2cccc(F)c2)c(=O)n1Cc1ccccc1Cl,inactive: 41%
21,COc1cccc(CNC(=O)CCCN2C(=O)CSc3c2c(C)nn3-c2ccccc2)c1,inactive: 89%
22,Cc1ccc(-c2cc(C(=O)NCCc3ccccc3)c3c(-c4ccc(C)cc4)[nH]nc3n2)cc1,inactive: 88%
23,COc1ccc(-c2ccc3c(N)c(C(=O)Nc4cc(F)ccc4C)sc3n2)cc1,inactive: 135%

# Source: PubChem BioAssay AID463173 (ICCB-Longwood Screening Facility, Harvard Medical School, 2010)
